According to PubChem BioAssay AID624417 (National Center for Advancing Translational Sciences (NCATS), 2012):
Hit rate of the full screen: of about 410,000 compounds, about 6,400 (1.6%) were called active. The inconclusive results got no clear call from the source; some entries with a clear call stand among them for comparison. The call rests on the fitted dose curve; in most records, active means well fitted inhibition curve with a large enough effect; inconclusive means small, poorly fitted or top-dose-only effect; inactive means no such curve, though single readings can be large or run the other way. Potencies of inconclusive entries are doubtful fits and often do not repeat.

Biological target: Glucagon-like peptide 1 receptor (Homo sapiens) (UniProt P43220)
Assay: qHTS of GLP-1 Receptor Inverse Agonists (Inhibition Mode); further: nearly all actives have a fitted effect of over 55% in size
Conditions: HEK293 GLP-1R CRE-luciferase, luminescence, 24 h, GLP-1R form is constitutively active; activity change, negative = inhibition: at 38.3 µM (top of the series) unless noted
Summary of the method: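 Assay principle: reduced luminescence from a cAMP-responsive reporter in HEK293 cells co-expressing a constitutively active GLP-1R. Conditions: 24 hr compound incubation, 37 deg C, 5% CO2.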
On the % scale 0 is the no-effect control and ±100 the full control effect; potency means the concentration at half of the fitted maximal effect; tags describe the fitted curve by direction and shape.

UniProt P43220, sequence (P43220 whole entry, looked up): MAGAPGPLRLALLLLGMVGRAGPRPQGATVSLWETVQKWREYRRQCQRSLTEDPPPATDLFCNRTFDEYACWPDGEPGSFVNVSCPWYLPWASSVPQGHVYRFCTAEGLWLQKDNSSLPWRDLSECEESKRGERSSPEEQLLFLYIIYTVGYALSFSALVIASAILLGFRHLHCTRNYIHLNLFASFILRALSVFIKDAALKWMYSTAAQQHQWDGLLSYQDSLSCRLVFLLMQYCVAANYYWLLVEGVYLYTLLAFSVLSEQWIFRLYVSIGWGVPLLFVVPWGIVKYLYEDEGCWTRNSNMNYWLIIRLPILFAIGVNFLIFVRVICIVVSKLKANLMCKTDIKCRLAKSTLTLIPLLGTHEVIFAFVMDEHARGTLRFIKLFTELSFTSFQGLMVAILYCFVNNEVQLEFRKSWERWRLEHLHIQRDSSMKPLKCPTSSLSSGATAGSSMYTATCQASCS

Potency, active:
CC[n+]1c(-c2ccc(C)cc2)csc1Nc1c(C)n(C)n(-c2ccccc2)c1=O 8.91 µM
CCC1CCCCN1CCCNC(=O)C1CCN(Cc2nc(-c3ccc(Cl)cc3)oc2C)CC1 (stereo not given) 12.6 µM

Potency, inconclusive:
N#CCCCSc1nnc(CSc2nc3ccccc3s2)n1-c1ccccc1 10 µM [inhibitor, partial curve]
O=C(c1ccc(CS(=O)Cc2ccccc2Cl)o1)N1CCN(c2cccc(Cl)c2)CC1 (stereo not given) 28.2 µM [inhibitor, partial curve, poor fit]
CC1(Cc2c(Cl)cccc2Cl)C(=O)Nc2cc(-c3ccccc3Cl)ccc21 (stereo not given) 11.2 µM [inhibitor, partial curve, poor fit]
CCN(CC)c1ccc(/C=N/NC(=O)OC(C)(C)C)cc1 11.2 µM [inhibitor, single point]
O=C(O)C/C(=C\c1ccc2c(c1)OCO2)c1nc2ccccc2s1 12.6 µM [inhibitor, single point]
Cc1cccc(NC(=O)c2cc(NC(=O)C3CCCCC3C(=O)O)ccc2N2CCCCC2)c1 (stereo not given) 12.6 µM [inhibitor, single point]
Cc1ccc(N=Nc2c(N)nn(-c3ccccc3)c2N)cc1 22.4 µM [inhibitor, single point]
CC(C)(C)OC(=O)NCCCCCNC(=O)c1[nH]cnc1C(=O)N[C@@H](CCCCNC(=O)OC(C)(C)C)C(=O)OC(C)(C)C 31.6 µM [inhibitor, partial curve, poor fit]
O=C(CN1CCC(n2nnc3cc(F)ccc32)CC1)Nc1ccc2c(c1)CCC2 12.6 µM [inhibitor, partial curve, poor fit]
O=C1C(Cl)=C(NCc2ccco2)C(=O)c2ccccc21 28.2 µM [inhibitor, single point]
COc1ccc(NC(=S)N(CCCN2CCOCC2)Cc2cn(C)c3ccccc23)cc1 10 µM [inhibitor, partial curve, poor fit]
CC(C)Sc1ncc(Cl)c(C(=O)Nc2ccc(S(=O)(=O)N(C)c3ccccc3)cc2)n1 28.2 µM [inhibitor, single point]
COc1ccc2[nH]c(C)c(CCN(Cc3cccs3)C(=S)Nc3ccccc3OC)c2c1 11.2 µM [inhibitor, partial curve, poor fit]
O=C(Nc1cnc2ccccc2c1)c1ccncc1 20 µM [inhibitor, single point]
Cc1c(C(=O)N/N=C/c2ccc(Cl)cc2)[nH]c2ccc(Cl)cc12 0.891 µM [inhibitor, full curve]
Cn1cc(NC(=O)Nc2ccc(C(F)(F)F)cc2)c(C(F)(F)F)n1 10 µM [inhibitor, partial curve, poor fit]
CC(OC(=O)c1cc(-c2cccnc2)nc2ccccc12)C(=O)Nc1ccc2ccccc2c1 (stereo not given) 6.31 µM [inhibitor, partial curve, poor fit]
O=C(OCC(O)C(O)C(O)C(SCc1ccccc1)SCc1ccccc1)c1ccccc1 (stereo not given) 22.4 µM [inhibitor, partial curve, poor fit]
O=C(Nc1cccc2c1CCCC2)c1ccc(Br)o1 28.2 µM [inhibitor, single point]
COc1ccc(Br)cc1CN(C)CC(=O)Nc1c(Cl)cccc1Cl 28.2 µM [inhibitor, single point]
COc1cccc(CNc2nc3cc(-c4ccccc4)sc3c(=O)n2C)c1OC 15.8 µM [inhibitor, partial curve, poor fit]
COc1ccc(N(CC(=O)NCCSc2ccc(C)cc2)S(=O)(=O)c2ccccc2)c(OC)c1 28.2 µM [inhibitor, single point]
CC(C)CCn1cnc2c(sc3nc4c(cc32)CSC(C)(C)C4)c1=O 1.26 µM [inhibitor, full curve, poor fit]

Activity change, negative = inhibition, inactive:
Cc1ccc2c(c1)N(C(=O)N1CCC(C(=O)NC3CCCCCC3)CC1)CC(C)O2 (stereo not given) 6.95%
COc1cc(NC(=O)Cc2c(C(=O)O)c(C)cn2C)cc(OC)c1 9.17%
CCn1c(=O)c2[nH]c(SC)nc2n(CC)c1=O 147%
COc1cc(NC(=O)CN2CCN(CC(=O)Nc3ccc(F)cc3)CC2)cc(OC)c1 -8.81%
COCCNC(=S)Nc1ccccc1Cc1ccccc1 -24.9%
Cc1ccccc1C(=O)NC1CC2CCCC(C1)N2Cc1ccc(Cl)cc1 (stereo not given) -20%
Cn1ccnc1C(=O)c1cc(SCC(=O)NC2CC2)nc2ccccc12 8.4%
O=C(Nc1c(C(=O)Nc2ccccc2F)oc2ccccc12)c1cc2ccccc2o1 8.73%
CN(C)CCNC(=O)C(=O)NCC1OCCN1S(=O)(=O)c1ccc([N+](=O)[O-])cc1 (stereo not given) -5.48%
Cn1ncc2c(Nc3cccc(F)c3)ncnc21 13.7%
COc1ccc(S(=O)(=O)NCC2CC3C=CC2C3)cc1OC (stereo not given) 4.36%
Cc1ccc(C)c(CS(=O)(=O)c2cn(CC(=O)N(C(C)C)C(C)C)c3ccccc23)c1 -10.5%
CC(C)C(=O)NC(=S)Nc1ccc(S(=O)(=O)N2CCCC2)cc1 -18.1%
O=C(NS(=O)(=O)Oc1ccc(F)c(Cl)c1)OC[C@@H]1CCCN2CCCCC12 (stereo not given in full) 5.52%
COc1ccc2c(C#CCCO)c(-c3ccc(S(C)(=O)=O)cc3)sc2c1 0.712%
COC(=O)c1cn(NC(=O)C2CCC(C)CC2)c(=O)c2ccccc12 (stereo not given) -22.6%
CC1Cc2cc(S(=O)(=O)N3CCCC(C(=O)N4CCCCC4)C3)ccc2N1C(=O)C1CC1 (stereo not given) 54.5%
N#Cc1cn(-c2ccccc2)nc1-c1ccco1 0%
CCC(C(=O)Nc1c(C)cccc1C)n1c(-c2ccc(-c3ccccc3)cc2)nc2ccccc21 (stereo not given) 6.67%
COc1ccc2c(c1)c1c(c(=O)n(-c3ccccc3)c(=O)n1CC(=O)Nc1ccc(C)c(C)c1)n2C 12.3%
